Assay results reported in PubChem BioAssay AID1963576 (National Center for Advancing Translational Sciences (NCATS), 2024).
In all, about 46,000 compounds went through this assay and about 60 (0.1%) were called active. Not shown: some 3% with an inconclusive outcome. Calls follow the shape of the dose curve; as a rule, active = well fitted inhibition curve with a large enough effect; inconclusive = small, poorly fitted or top-dose-only effect; inactive = no such curve, though single readings can be large or run the other way. The list shows a part of the results.

test: Primary qHTS assay for Inhibitors of ovarian cancer metastasis using an organotypic tumor microenvironment (TME) model.; also: nearly all actives have a fitted effect of over 65% in size;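 as to Potency: count of GFP cancer cells still attached after washing and fixation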;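 as to activity change, negative = inhibition: plate controls were DMSO wells for no effect and tomatine positive control wells for full effect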; conditions: SKOV3ip1-GFP adhesion/invasion on 3D omental model, fluorescence; series mostly up to 45.8 µM; activity change, negative = inhibition: at the top concentration
Outline: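 A 3D layer of primary human omental fibroblasts, mesothelial cells, fibronectin and collagen I, grown 48 hr, received SKOV3ip1-GFP cells in serum-free medium plus compounds at 0.36-46 umol/L. After 2 hr RT and 16 hr 37 C, fixed adherent GFP cells were counted; normalized to DMSO and tomatine.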
Potency is read from the fitted curve at half-maximal effect.

Activity change, negative = inhibition, inactive:
O=c1oc2cc(O)ccc2cc1-c1nc(-c2ccc(Cl)c(Cl)c2)cs1 3.53%, CCCn1c(COc2cccc(C)c2)nc2ccccc21 -9.05%, COc1cccc(NS(=O)(=O)c2ccc3[nH]c4c(c3c2)CCCCCC4)c1 -21.7%, COc1ccc(NC(=O)C(NC(=O)Cc2cccs2)c2ccc(OC)cc2)cc1 (configuration not stated) -5.15%, Cc1cc(Br)cc(C)c1NC(=O)c1cnc2ccccn2c1=O 4.36%, CCOC(=O)c1ccc(NC(=O)CC2Nc3cccc4cccc(c34)NC2=O)cc1 (configuration not stated) -6.96%, CCc1ccc(CN(C(=O)c2ccc(OC)cc2)C2CCS(=O)(=O)C2)cc1 (configuration not stated) 4.75%, CCC12CN3CC(CC)(CN(C1)C3c1cccc(OC)c1O)C2=O (configuration not stated) -16.5%, COc1cc2c(cc1NC(=O)COc1ccc(Br)c(C)c1)oc1ccccc12 -8.07%, Cc1cccc(N2CCN(C(=O)c3cn(C)c4ccc(S(=O)(=O)N(C)C)cc4c3=O)CC2C)c1 (configuration not stated) 11.9%, CCOC(=O)Cn1c(=O)n(-c2ccccc2OC)c2nc(-c3ccccc3)nc(C(N)=O)c21 25.6%, CCc1nnc(SCC(=O)Nc2ccc(Cl)cc2F)c2cc3occc3n12 18.3%, COc1ccc(C2=CC(c3ccccc3Cl)n3nc(-c4ccc(C)cc4)nc3N2)cc1 (configuration not stated) -2.19%, CCc1ccc(-n2c(SCc3nc(-c4cc(OC)ccc4OC)no3)nnc2-c2ccccc2)cc1 1.69%, COc1ccc(-c2c(C)c3ccc(O)c(CN4CCCCC4)c3oc2=O)cc1OC -5.63%, Cc1nc(SCc2cc(=O)c3cccc(F)c3[nH]2)n[nH]1 -3.7%

outcome, inactive:
COC(=O)C1=C(C)NC(=O)NC1c1cn(-c2ccccc2)nc1-c1ccc(OC)c(Br)c1 (configuration not stated), Cc1ccc(S(=O)(=O)C(CNC(=O)COc2ccccc2)c2cccs2)cc1 (configuration not stated), Cn1c2c(c(=O)n(C)c1=O)C(c1cccc(O)c1)CC(=O)N2 (configuration not stated), COc1ccc(-c2onc(C)c2C)cc1S(=O)(=O)N1CCc2ccccc21, Cc1noc(C)c1S(=O)(=O)Nc1ccc(C(=O)Nc2ccc(C(C)C)cc2)cc1, COc1ccc(-c2nc3ccccc3s2)cc1NC(=O)c1ccc(C#N)cc1F, CCn1c(C(=O)NCc2ccc(C)cc2)cc2sc(Cl)cc21, CCc1ccc(CNC(=O)c2ccc(CS(=O)c3ccc(Br)cc3)o2)cc1 (configuration not stated), CCOC(=O)c1c(NC(=O)CCCOc2ccc(C)cc2)sc2c1CCC(C)C2 (configuration not stated), Cc1ccc2nc(N(Cc3cccnc3)C(=O)c3ccco3)sc2c1

Potency, active:
COc1ccc(-c2ccc3ncc4c(c3c2)n(-c2ccc(N3CCNCC3)c(C(F)(F)F)c2)c(=O)n4C)cn1 9.35 µM
